Experimental data: patent US9585886B2, “ASK1 inhibiting pyrrolopyrimidine derivatives” (CALCHAN LIMITED, priority 2010, dated 2017)

Tested on: CCI-induced mechanical allodynia
Settings: rats, 3 mg/kg po, 30 mg/kg po bid, day 20 to day 27; measured 1 hour post morning dose on days 22, 25 and 27

In the case of Cc1c[nH]c2ncnc(N3CCC(NC(=O)c4ccccc4)CC3)c12 [Example 17], the “effect on mechanical allodynia in the CCI model (FIG. 3, Von Frey hairs, AUC)” value is reported as “partially reverses mechanical allodynia”.
